31 molecules from paper PMC9911399, “Two distinct binding modes provide the RNA-binding protein RbFox with extraordinary sequence specificity” can be followed below.

Changes are numbered by the printed parent chain; changes in the protein carry UniProt numbers. Some of the results follow.

Sequences and labels used below:
T1: RBFOX1 RRM (Homo sapiens, UniProt Q9NWB1 109-208)
T1 sequence: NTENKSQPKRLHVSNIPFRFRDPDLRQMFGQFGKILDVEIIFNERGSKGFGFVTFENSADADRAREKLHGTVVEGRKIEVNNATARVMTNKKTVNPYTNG

B1: UAUGCCA (DNA:RNA)
RNA: GGGAGACCGGAAUUCAGAUUGUCCUAUGCCAUUAAAUCCCGUCGUAGCCACCA
DNA 1: CAATCTGAATTCCGGTCTCCC
DNA 2: TGGTGGCTACGACGGGATT
B2: CAACAUC (DNA:RNA)
RNA: B1 RNA with U25C, U27A, G28C, C29A, C30U, A31C
DNA 1: CAATCTGAATTCCGGTCTCCC
DNA 2: TGGTGGCTACGACGGGATT
B3: GAAACAA (DNA:RNA)
RNA: B1 RNA with U25G, U27A, G28A, C30A
DNA 1: CAATCTGAATTCCGGTCTCCC
DNA 2: TGGTGGCTACGACGGGATT
B4: UAACAGA (DNA:RNA)
RNA: B1 RNA with U27A, G28C, C29A, C30G
DNA 1: CAATCTGAATTCCGGTCTCCC
DNA 2: TGGTGGCTACGACGGGATT
B5: UAUAAAA (DNA:RNA)
RNA: B1 RNA with G28A, C29A, C30A
DNA 1: CAATCTGAATTCCGGTCTCCC
DNA 2: TGGTGGCTACGACGGGATT
B6: CAAGUAA (DNA:RNA)
RNA: B1 RNA with U25C, U27A, C29U, C30A
DNA 1: CAATCTGAATTCCGGTCTCCC
DNA 2: TGGTGGCTACGACGGGATT
B7: AGAUUAC (DNA:RNA)
RNA: GGGAGACCGGAAUUCAGAUUGUCCAGAUUACUUAAAUCCCGUCGUAGCCACCA
DNA 1: CAATCTGAATTCCGGTCTCCC
DNA 2: TGGTGGCTACGACGGGATT
B8: UCCAUCU (DNA:RNA)
RNA: B1 RNA with A26C, U27C, G28A, C29U, A31U
DNA 1: CAATCTGAATTCCGGTCTCCC
DNA 2: TGGTGGCTACGACGGGATT
B9: CCUGGGG (DNA:RNA)
RNA: B1 RNA with U25C, A26C, C29G, C30G, A31G
DNA 1: CAATCTGAATTCCGGTCTCCC
DNA 2: TGGTGGCTACGACGGGATT
B10: CUGUGUA (DNA:RNA)
RNA: B7 RNA with A25C, G26U, A27G, U29G, A30U, C31A
DNA 1: CAATCTGAATTCCGGTCTCCC
DNA 2: TGGTGGCTACGACGGGATT
B11: GUAACAA (DNA:RNA)
RNA: B7 RNA with A25G, G26U, U28A, U29C, C31A
DNA 1: CAATCTGAATTCCGGTCTCCC
DNA 2: TGGTGGCTACGACGGGATT
B12: AGUGUGC (DNA:RNA)
RNA: B7 RNA with A27U, U28G, A30G
DNA 1: CAATCTGAATTCCGGTCTCCC
DNA 2: TGGTGGCTACGACGGGATT
B13: UGCCGUG (DNA:RNA)
RNA: B7 RNA with A25U, A27C, U28C, U29G, A30U, C31G
DNA 1: CAATCTGAATTCCGGTCTCCC
DNA 2: TGGTGGCTACGACGGGATT
B14: UAUCUCC (DNA:RNA)
RNA: B1 RNA with G28C, C29U, A31C
DNA 1: CAATCTGAATTCCGGTCTCCC
DNA 2: TGGTGGCTACGACGGGATT
B15: GGUGAAU (DNA:RNA)
RNA: B7 RNA with A25G, A27U, U28G, U29A, C31U
DNA 1: CAATCTGAATTCCGGTCTCCC
DNA 2: TGGTGGCTACGACGGGATT
B16: AAAUUCG (DNA:RNA)
RNA: B7 RNA with G26A, A30C, C31G
DNA 1: CAATCTGAATTCCGGTCTCCC
DNA 2: TGGTGGCTACGACGGGATT
B17: CUGGUAG (DNA:RNA)
RNA: B7 RNA with A25C, G26U, A27G, U28G, C31G
DNA 1: CAATCTGAATTCCGGTCTCCC
DNA 2: TGGTGGCTACGACGGGATT
B18: GUGGCUC (DNA:RNA)
RNA: B1 RNA with U25G, A26U, U27G, C30U, A31C
DNA 1: CAATCTGAATTCCGGTCTCCC
DNA 2: TGGTGGCTACGACGGGATT
B19: GACUCUC (DNA:RNA)
RNA: B7 RNA with A25G, G26A, A27C, U29C, A30U
DNA 1: CAATCTGAATTCCGGTCTCCC
DNA 2: TGGTGGCTACGACGGGATT
B20: UUCAUAG (DNA:RNA)
RNA: B7 RNA with A25U, G26U, A27C, U28A, C31G
DNA 1: CAATCTGAATTCCGGTCTCCC
DNA 2: TGGTGGCTACGACGGGATT
B21: UGUUGUU (DNA:RNA)
RNA: B7 RNA with A25U, A27U, U29G, A30U, C31U
DNA 1: CAATCTGAATTCCGGTCTCCC
DNA 2: TGGTGGCTACGACGGGATT
B22: AGCUAUU (DNA:RNA)
RNA: B7 RNA with A27C, U29A, A30U, C31U
DNA 1: CAATCTGAATTCCGGTCTCCC
DNA 2: TGGTGGCTACGACGGGATT
B23: UAUUCUA (DNA:RNA)
RNA: B1 RNA with G28U, C30U
DNA 1: CAATCTGAATTCCGGTCTCCC
DNA 2: TGGTGGCTACGACGGGATT
B24: GCCUAGA (DNA:RNA)
RNA: B7 RNA with A25G, G26C, A27C, U29A, A30G, C31A
DNA 1: CAATCTGAATTCCGGTCTCCC
DNA 2: TGGTGGCTACGACGGGATT
B25: CGGAGUA (DNA:RNA)
RNA: B7 RNA with A25C, A27G, U28A, U29G, A30U, C31A
DNA 1: CAATCTGAATTCCGGTCTCCC
DNA 2: TGGTGGCTACGACGGGATT
B26: AUCUGCU (DNA:RNA)
RNA: B7 RNA with G26U, A27C, U29G, A30C, C31U
DNA 1: CAATCTGAATTCCGGTCTCCC
DNA 2: TGGTGGCTACGACGGGATT
B27: AAGCGUU (DNA:RNA)
RNA: B7 RNA with G26A, A27G, U28C, U29G, A30U, C31U
DNA 1: CAATCTGAATTCCGGTCTCCC
DNA 2: TGGTGGCTACGACGGGATT
B28: AGGAAGC (DNA:RNA)
RNA: B7 RNA with A27G, U28A, U29A, A30G
DNA 1: CAATCTGAATTCCGGTCTCCC
DNA 2: TGGTGGCTACGACGGGATT
B29: AAGUGCA (DNA:RNA)
RNA: B1 RNA with U25A, U27G, G28U, C29G
DNA 1: CAATCTGAATTCCGGTCTCCC
DNA 2: TGGTGGCTACGACGGGATT
B30: GCCGAAG (DNA:RNA)
RNA: B7 RNA with A25G, G26C, A27C, U28G, U29A, C31G
DNA 1: CAATCTGAATTCCGGTCTCCC
DNA 2: TGGTGGCTACGACGGGATT
B31: CGGUUAU (DNA:RNA)
RNA: B7 RNA with A25C, A27G, C31U
DNA 1: CAATCTGAATTCCGGTCTCCC
DNA 2: TGGTGGCTACGACGGGATT

In this assay the target is T1, RBFOX1 RRM. The assay can be described thus: EMSA; HiTS-Eq, 1 nM pool, 10 min; buffer printed only for the single-RNA assays: 10 mM Tris pH 7.5, 150 mM NaCl, 3.4 mM EDTA, 0.001% NP-40, 30 C. Particulars: tags: His6 N-terminal (pET28a); label: 5' 32P. A digest of the protocol: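 Relative association constants, normalised to the cognate motif, were derived by comparing read counts of each RNA species with those of the control reaction. The RNA sequenced was the free fraction, separated by 8% native PAGE after a 10 min equilibration in 50 µL of 1 nM 5′-radiolabelled RNA (7 randomized nucleotides) with increasing concentrations of purified wild-type or mutant RbFox RRM.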
For B1, the binding signal was 0.00839 KA relative to UGCAUGU. For the molecule B2, the binding signal was 0.000741 KA relative to UGCAUGU. Under B3 stands 0.00256 KA relative to UGCAUGU. Regarding B4, the binding signal was 0.00571 KA relative to UGCAUGU.

Turning to B5, the binding signal was 0.00768 KA relative to UGCAUGU. Next, B6: 0.00166 KA relative to UGCAUGU; B7: 0.00241 KA relative to UGCAUGU. Under B8 stands 0.00481 KA relative to UGCAUGU. Under B9 stands 0.00787 KA relative to UGCAUGU; under B10, 0.0155 KA relative to UGCAUGU. In the case of B11, the binding signal is 0.00241 KA relative to UGCAUGU. Consider B12, for which the binding signal was 0.0192 KA relative to UGCAUGU. Next, B13: 0.0271 KA relative to UGCAUGU; B14: 0.00352 KA relative to UGCAUGU; B15: 0.0155 KA relative to UGCAUGU.

As to B16, the binding signal is 0.0102 KA relative to UGCAUGU. Under B17 stands 0.0238 KA relative to UGCAUGU; under B18, 0.0226 KA relative to UGCAUGU. In the case of B19, the binding signal is 0.0119 KA relative to UGCAUGU. B20: the binding signal was 0.0077 KA relative to UGCAUGU.

Turning to B21, the binding signal is 0.0248 KA relative to UGCAUGU. Under B22 stands 0.00809 KA relative to UGCAUGU; under B23, 0.00393 KA relative to UGCAUGU; under B24, 0.0135 KA relative to UGCAUGU. Under B25 stands 0.0138 KA relative to UGCAUGU; under B26, 0.0118 KA relative to UGCAUGU. For the molecule B27, the binding signal is 0.00533 KA relative to UGCAUGU.

Consider B28, for which the binding signal is 0.0126 KA relative to UGCAUGU. Under B29 stands 0.0164 KA relative to UGCAUGU; under B30, 0.0193 KA relative to UGCAUGU; under B31, 0.0102 KA relative to UGCAUGU.
